# Experimental data reported in the supplement of paper PMC12340641.
# In all, about 1,000 compounds were measured (“relative growth in counter assay (no AraC = 100%, AraC + DMSO = 0%)”: median about -1.1, highest 2% from about 20 on). The list shows a part of the results.
# Test system: HEK293FT dCK*-only
# Assay: relative growth in counter assay (no AraC = 100%, AraC + DMSO = 0%); higher = more growth rescue independent of IKZF1
# Conditions: compound concentration: 5 uM; AraC concentration: 0.3 uM; overnight pretreatment + 4 days AraC
# Experimental: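 Growth recovery screen of the molecular-glue-like (Specs) library. HEK293FT cells expressing a dCK*-IKZF1 fusion (primary) or dCK* alone (counter) were pretreated overnight with compound at 5 uM, then given 0.3 uM AraC for 4 days. Hoechst nuclei were counted by imaging. Primary: normalised to pomalidomide (100%) and DMSO (0%), mean of 2 replicates. Counter: normalised to no-AraC (100%) and AraC+DMSO (0%), single replicate.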
row,Structure (SMILES),relative growth in counter assay [%]
1,CN(CC(=O)N1CCOC(c2cccc(Nc3nccs3)n2)C1)Cc1ccccc1F (configuration not stated),0.79
2,Cc1csc(Nc2cccc(CC3CCN(CC(=O)N(C)C)CC3)n2)n1,7.9
3,Cc1csc(Nc2cccc(C3CCCN3C(=O)COc3c(C)cccc3C)n2)n1 (configuration not stated),-5.6
4,Cc1ccc(CCC(=O)Nc2ccc(S(=O)(=O)Nc3nc(C)cc(C)n3)cc2)cc1,-0.03
5,Cc1csc(Nc2cccc(C3CCN(C(=O)c4nccc5ccccc45)CC3)n2)n1,-6.18
6,COc1ccc(NC(=O)CN2CCC(c3cccc(Nc4nc(C)cs4)n3)CC2)cc1,13.8
7,COc1ccc(OCCCC(=O)Nc2ccc(S(=O)(=O)Nc3ncccn3)cc2)cc1,1.38
8,O=C(CN1C(=O)C2CCCCC2C1=O)Nc1ccc(S(=O)(=O)Nc2ncccn2)cc1 (configuration not stated),-0.9
9,Cc1csc(Nc2cccc(C3CCN(C(=O)C4CC=CCC4)CC3)n2)n1 (configuration not stated),7.14
10,Cc1ccc(Cl)cc1NC(=O)CSc1nnc2c(n1)[nH]c1ccc(F)cc12,-2.7
11,CCCc1cnc(Nc2cccc(C3CCN(C(=O)C4CCCCN4CCO)CC3)n2)s1 (configuration not stated),-7.08
12,O=C(Nc1ccc(S(=O)(=O)Nc2ncccn2)cc1)C(F)(F)F,11.6
13,Cc1nc2ccccn2c1CC(=O)N1CCOC(c2cccc(Nc3nccs3)n2)C1 (configuration not stated),4.61
14,Cc1ccnc(NS(=O)(=O)c2ccc(NC(=O)c3ccccc3F)cc2)n1,4.1
15,COc1ccc(C(=O)Nc2ccc(S(=O)(=O)Nc3cc(OC)nc(OC)n3)cc2)c(OC)c1,2.33
16,NC(=O)CN1CCC(Cc2cccc(Nc3nccs3)n2)CC1,-23.2
17,CC(=O)Nc1ccc(C(=O)Nc2ccc(S(=O)(=O)Nc3ncccn3)cc2)cc1,4.78
18,COc1cc(OC)cc(C(=O)Nc2ccc(S(=O)(=O)Nc3ccccn3)cc2)c1,2.42
19,O=C(/C=C/c1ccco1)N1CCCC(c2csc(Nc3ccccn3)n2)C1 (configuration not stated),11.1
20,Cc1csc(Nc2cccc(C3CCCN3CC(N)=O)n2)n1 (configuration not stated),16.8
21,CC(Oc1ccc(F)cc1)C(=O)Nc1ccc(S(=O)(=O)Nc2ncccn2)cc1 (configuration not stated),7.06
22,Cc1cc(C)nc(NS(=O)(=O)c2ccc(NC(=O)C(C)Oc3ccccc3F)cc2)n1 (configuration not stated),5.27
23,COc1cc(NS(=O)(=O)c2ccc(NC(=O)c3ccc(Br)o3)cc2)nc(OC)n1,-0.13
24,Cc1cnc(Nc2cccc(C3CN(C(=O)c4ccccn4)CCO3)n2)s1 (configuration not stated),-7.73
25,CCCc1cnc(Nc2cccc(C3CCCN(C(=O)C4CCCCC4)C3)n2)s1 (configuration not stated),-7.86

row,Structure (SMILES),relative growth in counter assay [%]
1,Cc1ccc(/C=C/C(=O)Nc2ccc(S(=O)(=O)Nc3nc(C)cc(C)n3)cc2)cc1,-5.91
2,Cc1cnc(Nc2cccc(C3CN(C(=O)CCc4ccc(N(C)C)cc4)CCO3)n2)s1 (configuration not stated),3.21
3,CC(C)CC(=O)Nc1ccc(S(=O)(=O)Nc2ncccn2)cc1,-0.27
4,O=C(CSc1nnc2c(n1)[nH]c1ccccc12)Nc1cccc(Cl)c1,-19.5
5,Cc1cc(C)nc(NS(=O)(=O)c2ccc(N3C(=O)c4ccccc4C3=O)cc2)n1,-1.86
6,COc1ccc(NS(=O)(=O)c2ccc(NC(=O)c3ccccc3C(=O)O)cc2)nn1,0.95
7,CCCCc1cnc(Nc2cccc(C3CCN(C(=O)[C@@H]4CCCN4C(=O)OC(C)(C)C)CC3)n2)s1,-3.6
8,CC(=O)Nc1ccc(S(=O)(=O)Nc2cc(C)ccn2)cc1,1.91
9,O=C(Nc1ccc(S(=O)(=O)Nc2ncccn2)cc1)C1CC(=O)N(c2ccccc2)C1 (configuration not stated),-22.8
10,CCC(=O)Nc1ccc(S(=O)(=O)Nc2nccc(C)n2)cc1,-9.93
11,Cc1ccc(/C=C/C(=O)Nc2ccc(S(=O)(=O)Nc3ncccn3)cc2)cc1,4.41
12,Nc1ccc(Oc2ccc3c(c2)C(=O)N(CCO)C3=O)cc1,0.81
13,CC(=O)Nc1cccc(Oc2ccc3c(c2)C(=O)N(c2ccc(OC(C)=O)cc2)C3=O)c1,1.8
14,Cc1cnc(Nc2cccc(C3CN(C(=O)CN(C(=O)OC(C)(C)C)c4ccccc4)CCO3)n2)s1 (configuration not stated),-15.5
15,CCCc1cnc(Nc2cccc(C3CN(C(=O)C4CCCCC4)CCO3)n2)s1 (configuration not stated),-12.3
16,COc1ccc(-c2csc(Nc3ccc(S(=O)(=O)Nc4cc(OC)nc(OC)n4)cc3)n2)cc1,-3.14
17,COc1ccc(Br)cc1/C=N/NS(=O)(=O)c1ccccc1,-21.2
18,COc1cc(CN2CCCC2c2cccc(Nc3nccs3)n2)ccc1OCC(N)=O (configuration not stated),3.54
19,CC(C)(N)C(=O)N1CCC(c2cccc(Nc3ncc(CC(F)(F)F)s3)n2)CC1,-21.1
20,Cc1nc(Nc2cccc(C3CCN(C(=O)CCC4NC(=O)NC4=O)CC3)n2)sc1C (configuration not stated),2.58
21,Cc1ccc(Nc2nc(C3CCCN(C(=O)/C=C/c4csc(C)n4)C3)cs2)nc1 (configuration not stated),3.58
22,Cc1cnc(Nc2cccc(C3CCN(C(=O)[C@H]4CCCC[C@H]4C(=O)N(C)C)CC3)n2)s1,-22.3
23,COc1ccc(NS(=O)(=O)c2ccc(NS(=O)(=O)c3ccccc3)cc2)nn1,-2.89
24,Cc1cnc(Nc2cccc(C3CN(C(=O)C45CC6CC(CC(O)(C6)C4)C5)CCO3)n2)s1 (configuration not stated),-16.8
25,Cc1ccnc(NS(=O)(=O)c2ccc(NC(=O)C34CC5CC(CC(C5)C3)C4)cc2)n1,-15.3

row,Structure (SMILES),relative growth in counter assay [%]
1,O=C(Nc1ccc(S(=O)(=O)Nc2ccccn2)cc1)c1ccc(Cl)cc1Cl,7.6
2,Nc1ccc(C(=O)N2CCCC2c2cccc(Nc3nccs3)n2)cn1 (configuration not stated),-0.6
3,Cc1cnc(Nc2cccc(C3CCCN3C(=O)CCn3c(=O)oc4ccccc43)n2)s1 (configuration not stated),-16.3
4,Cc1nc(Nc2cccc(C3CCCN3C(=O)c3cc4ccc(F)cc4[nH]3)n2)sc1C (configuration not stated),9.01
5,Cc1cnc(Nc2cccc(C3CCN(CC(N)=O)CC3)n2)s1,-24.9
6,Cc1csc(Nc2cccc(C3CN(C(=O)CCOc4ccccc4C)CCO3)n2)n1 (configuration not stated),49.2
7,CCCCc1cnc(Nc2cccc(C3CCN(C(=O)[C@@H]4CCCN4CCO)CC3)n2)s1,2.3
8,Cc1cc(Cl)ccc1OCC(=O)Nc1ccc(S(=O)(=O)Nc2ncccn2)cc1,-1.87
9,CCCC(=O)Nc1ccc(S(=O)(=O)Nc2cc(OC)nc(OC)n2)cc1,-1.4
10,COc1cc(OC)cc(C(=O)Nc2ccc(S(=O)(=O)Nc3nc(C)cc(C)n3)cc2)c1,-0.77
11,CCCc1nc2ccccc2n1CC(=O)N1CCOC(c2cccc(Nc3ncc(C)s3)n2)C1 (configuration not stated),-16.5
12,Cc1ccn(CCC(=O)N2CCOC(c3cccc(Nc4ncc(C)s4)n3)C2)n1 (configuration not stated),-1.16
13,CCc1ccc(OCC(=O)Nc2ccc(S(=O)(=O)Nc3nc(C)cc(C)n3)cc2)cc1,-9.47
14,Cc1cccc(C)c1OCC(=O)Nc1ccc(S(=O)(=O)Nc2ccccn2)cc1,-8.13
15,CC(=O)N1CCC(c2cccc(Nc3ncc(C)s3)n2)CC1,-25.3
16,CCc1ccccc1OCC(=O)Nc1ccc(S(=O)(=O)Nc2nc(C)cc(C)n2)cc1,5.52
17,COc1ccccc1C(=O)Nc1ccc(S(=O)(=O)Nc2nccc(C)n2)cc1,-6.32
18,COc1ccc(NS(=O)(=O)c2ccc(NC(=S)NC(=O)/C=C/c3ccccc3)cc2)nn1,1.67
19,Nc1ccc(S(=O)(=O)Nc2nccc(/C=C/c3cccc(Br)c3)n2)cc1,8.78
20,Cc1csc(Nc2cccc(C3CCCN3C(=O)COCCN3CCCC3=O)n2)n1 (configuration not stated),-0.54
21,O=C(O)c1ccc(Oc2ccc3c(c2)C(=O)N(c2nccs2)C3=O)cc1,3.45
22,NC(=O)CN1CCCC(c2csc(Nc3ccccn3)n2)C1 (configuration not stated),-9.34
23,COc1ccccc1OCC(=O)Nc1ccc(S(=O)(=O)Nc2ncccn2)cc1,9.82
24,COc1cc(NS(=O)(=O)c2ccc(NS(=O)(=O)c3ccccc3)cc2)nc(OC)n1,-2.98
25,COCCC(=O)N1CCC(c2cccc(Nc3ncc(C)s3)n2)CC1,-4.11

row,Structure (SMILES),relative growth in counter assay [%]
1,CC(=O)Nc1ccc(-c2csc(Nc3cccc(C)n3)n2)cc1,5.34
2,Cc1cnc(Nc2cccc(C3CCN(C(=O)CN(C)C)CC3)n2)s1,-21.2
3,O=C(O)CCOCCOCCNc1cccc2c1C(=O)N(C1CCC(=O)NC1=O)C2=O (configuration not stated),1.04
4,COc1ccccc1CCC(=O)N1CCC(c2cccc(Nc3nc(C)cs3)n2)CC1,1.77
5,Cc1cc(C)nc(NS(=O)(=O)c2ccc(NC(=O)CSc3nc(C)cc(C)c3C#N)cc2)n1,-2.72
6,Cc1cnc(Nc2cccc(C3CCN(C(=O)CCc4nc5ccccc5[nH]4)CC3)n2)s1,-4.59
7,CCCOc1ccc(/C=C/C(=O)Nc2ccc(S(=O)(=O)Nc3ncccn3)cc2)cc1OC,-8.12
8,Cc1nc(Nc2cccc(C3CCCN3C(=O)CCc3nnc(C(C)C)o3)n2)sc1C (configuration not stated),0.87
9,O=C(Nc1ccc(S(=O)(=O)Nc2ccccn2)cc1)c1cccs1,-6.58
10,CCc1nnsc1C(=O)N1CCCC1c1cccc(Nc2nccs2)n1 (configuration not stated),-6.83
11,Cc1cc(NS(=O)(=O)c2ccc(NC(=O)COc3ccc(C(C)C)cc3)cc2)nc(C)n1,-0.57
12,COc1ccc2[nH]c3nc(SCC(=O)N(Cc4ccccc4)c4ccc(F)cc4)nnc3c2c1,17.4
13,O=C1CCC(N2C(=O)c3cccc(N4CCC(C(=O)O)(c5ccccc5)CC4)c3C2=O)C(=O)N1 (configuration not stated),4.08
14,COC1CCCC(C(=O)N2CCC(c3cccc(Nc4ncc(C)s4)n3)CC2)C1 (configuration not stated),-20.1
15,Cc1cnc(Nc2cccc(C3CCCN3C(=O)CCN(C)c3cccc(F)c3)n2)s1 (configuration not stated),-25.9
16,CCC(=O)N1CCOC(c2cccc(Nc3nc(C)c(C)s3)n2)C1 (configuration not stated),7.53
17,CCNc1nc(NC(C)C)nc(NS(=O)(=O)c2ccc(N)cc2)n1,0.52
18,CCC(C)C(=O)Nc1ccc(S(=O)(=O)Nc2ncccn2)cc1 (configuration not stated),0
19,Cc1nc(Nc2cccc(C3CN(C(=O)c4cn5cccc(C)c5n4)CCO3)n2)sc1C (configuration not stated),2.16
20,COc1nccnc1NS(=O)(=O)c1ccc(NCc2ccccc2O)cc1,1.3
21,CS(=O)(=O)NCC(=O)N1CCC(c2cccc(Nc3ncc(-c4ccccc4)s3)n2)CC1,-24.9
22,Cc1cnc(Nc2cccc(C3CN(C(=O)CCC4CCCCC4)CCO3)n2)s1 (configuration not stated),-1.73
